Assay results from the supplement of paper PMC7826260.
The list shows a part of the results. The data describe in vitro nicking of single-stranded DNA by Rep domains (3 µM enzyme, 1 h, 37 °C); shown is the middle of each 90-letter strand. The score is log2 (uncut reads / reads without enzyme); more negative means more cut, near 0 not cut, and no call is made. The scaling is to total reads; where an enzyme cuts many sequences, the uncut ones exceed 0.

Tests used:
Test in all cases: uncleaved DNA left, log2 of reads against the no-enzyme library (log2 ratio); higher = less cleavage (more negative = more Rep cleavage of the k-mer); sequences stand for … in CTCGTCCG…ACCGGAGA
[1] = test system: T1, Rep nickase domain of Muscovy duck circovirus
T1 sequence (residues 1-111 of Rep, tag left off): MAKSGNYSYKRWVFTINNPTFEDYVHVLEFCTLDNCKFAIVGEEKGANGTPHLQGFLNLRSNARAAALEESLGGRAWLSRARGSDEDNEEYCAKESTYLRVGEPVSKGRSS
Procedure: (§1)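 A pool of 90-nt single-stranded DNAs with seven random bases just before the constant AC of the nick site (name = the seven bases) was cut by 3 µM recombinant His6-SUMO-tagged Rep nickase domain (300 nM DNA, 50 mM HEPES pH 8.0, 50 mM NaCl, 1 mM MnCl2, 1 h, 37 °C, three replicates). Uncut DNA was amplified and sequenced.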

[2] = test system: T2, Rep nickase domain of banana bunchy top virus
T2 sequence (residues 1-94 of Rep, tag left off): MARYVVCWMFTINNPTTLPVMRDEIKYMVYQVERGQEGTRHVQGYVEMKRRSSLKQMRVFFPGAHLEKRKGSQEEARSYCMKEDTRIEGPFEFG
Procedure: as §1

[3] = test system: T3, Rep nickase domain of cabbage leaf curl virus
T3 sequence (residues 1-116 of Rep, tag left off): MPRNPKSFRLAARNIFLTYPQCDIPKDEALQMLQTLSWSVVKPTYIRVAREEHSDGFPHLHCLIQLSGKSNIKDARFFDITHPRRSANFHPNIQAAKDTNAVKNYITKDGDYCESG
Procedure: as §1

[4] = test system: T4, Rep nickase domain of chickpea chlorotic dwarf virus
T4 sequence (residues 1-124 of Rep, tag left off): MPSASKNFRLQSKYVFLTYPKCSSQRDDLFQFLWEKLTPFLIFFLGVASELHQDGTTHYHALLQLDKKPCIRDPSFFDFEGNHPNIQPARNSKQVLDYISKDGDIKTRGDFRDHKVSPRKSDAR
Procedure: as §1

[5] = test system: T5, Rep nickase domain of faba bean necrotic yellows virus
T5 sequence (residues 1-98 of Rep, tag left off): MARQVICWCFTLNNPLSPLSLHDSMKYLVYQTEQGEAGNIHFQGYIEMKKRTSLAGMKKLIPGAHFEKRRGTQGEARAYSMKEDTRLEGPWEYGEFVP
Procedure: as §1

[6] = test system: T6, Rep nickase domain of maize striate mosaic virus
T6 sequence (residues 1-117 of Rep, tag left off): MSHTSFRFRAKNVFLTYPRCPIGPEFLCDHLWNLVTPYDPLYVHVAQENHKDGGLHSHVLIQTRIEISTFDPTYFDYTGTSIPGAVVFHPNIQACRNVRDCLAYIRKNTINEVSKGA
Procedure: as §1

[7] = test system: T7, Rep nickase domain of porcine circovirus 2
T7 sequence (residues 2-116 of Rep, tag left off): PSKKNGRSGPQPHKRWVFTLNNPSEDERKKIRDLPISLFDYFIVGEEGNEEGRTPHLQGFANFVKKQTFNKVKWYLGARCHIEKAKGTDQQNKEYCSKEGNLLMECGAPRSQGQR
Procedure: as §1

[8] = test system: T8, Rep nickase domain of tomato golden mosaic virus
T8 sequence (residues 1-124 of Rep, tag left off): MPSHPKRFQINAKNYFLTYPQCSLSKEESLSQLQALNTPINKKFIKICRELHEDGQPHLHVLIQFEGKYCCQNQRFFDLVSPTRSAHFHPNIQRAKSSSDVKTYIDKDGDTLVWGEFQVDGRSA
Procedure: as §1

[9] = test system: T9, Rep nickase domain of tomato yellow leaf curl virus
T9 sequence (residues 1-136 of Rep, tag left off): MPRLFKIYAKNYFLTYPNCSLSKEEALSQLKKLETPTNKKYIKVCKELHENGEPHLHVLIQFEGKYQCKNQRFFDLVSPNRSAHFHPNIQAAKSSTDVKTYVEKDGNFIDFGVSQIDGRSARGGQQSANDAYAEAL
Procedure: as §1

[10] = test system: T10, Rep nickase domain of wheat dwarf virus
T10 sequence (residues 1-137 of Rep, tag left off): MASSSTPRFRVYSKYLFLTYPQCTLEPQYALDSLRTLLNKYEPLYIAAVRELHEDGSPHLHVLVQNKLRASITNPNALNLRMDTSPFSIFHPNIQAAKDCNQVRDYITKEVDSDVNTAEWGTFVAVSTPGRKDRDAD
Procedure: as §1

| Sequence | uncleaved DNA left (log2) [1] | uncleaved DNA left (log2) [2] | uncleaved DNA left (log2) [3] | uncleaved DNA left (log2) [4] | uncleaved DNA left (log2) [5] | uncleaved DNA left (log2) [6] | uncleaved DNA left (log2) [7] | uncleaved DNA left (log2) [8] | uncleaved DNA left (log2) [9] | uncleaved DNA left (log2) [10] |
| --- | --- | --- | --- | --- | --- | --- | --- | --- | --- | --- |
| CGCTCCG | -0.0454 | -0.207 | -0.915 | -0.295 | -0.225 | -0.979 | -0.0514 | -0.185 | -0.124 | -0.156 |
| ACTTCGC | 0.0141 | -0.0135 | -0.726 | -0.77 | -0.0427 | -1.16 | 0.00528 | -0.0598 | -0.00848 | -0.000651 |
| AGTTCCT | -0.447 | -0.151 | 0.0748 | -1.26 | -0.0139 | 0.217 | -3.3 | -0.0199 | 0.0668 | 0.0789 |
| CTGCAGG | 0.19 | 0.057 | 0.0371 | 0.404 | 0.293 | -0.463 | 0.243 | 0.104 | 0.193 | 0.19 |
| CTTAGCA | -0.0305 | -0.0608 | 0.0316 | -0.115 | 0.096 | -0.869 | -0.167 | -0.107 | 0.017 | 0.0697 |
| GCTTCGA | -0.013 | -0.085 | -0.32 | -0.235 | 0.00714 | -0.979 | -0.0251 | 0.0291 | 0.0113 | -0.0906 |
| ACATTAC | -0.0172 | 0.0838 | -0.313 | -1.7 | 0.021 | -0.922 | 0.0811 | 0.0402 | -0.0956 | -0.0408 |
| GGCCCGG | 0.0671 | 0.0473 | 0.518 | 1.4 | 0.0738 | 1.94 | 0.0943 | 0.127 | -0.0246 | 0.0255 |
| TTTTGTT | -3.23 | -1.63 | -1.02 | -2.6 | -0.198 | -1.19 | -3.22 | -0.478 | -0.154 | -1.4 |
| AGCACTC | 0.0259 | -0.0252 | 0.118 | 0.509 | -0.0983 | 1.17 | -0.0211 | -0.0819 | -0.0962 | -0.0127 |
| TTGTCAG | 0.0931 | 0.128 | -0.635 | -0.0178 | 0.142 | -0.536 | 0.218 | 0.0924 | 0.155 | 0.0354 |
| AGGTTGG | 0.0469 | -0.0244 | -0.387 | -0.444 | -0.0239 | -0.899 | 0.116 | -0.132 | -0.0728 | -0.0557 |
| CATACGG | -0.0217 | 0.0712 | 0.493 | 1.31 | -0.0349 | 1.56 | 0.0982 | 0.116 | -0.0915 | 0.0152 |
| CTTGTCA | -0.105 | 0.0756 | 0.121 | -0.65 | -0.153 | -0.481 | -0.0663 | -0.0707 | 0.208 | 0.033 |
| CCATTGA | 0.000717 | 0.0112 | -0.557 | -0.158 | 0.103 | -0.956 | 0.272 | -0.00284 | 0.16 | 0.0385 |
| AGGAAGG | -0.109 | -0.108 | -0.0656 | 0.48 | -0.0229 | 0.187 | 0.0281 | -0.0783 | -0.161 | -0.0719 |
| AGCGATC | 0.11 | -0.000584 | 0.119 | 0.631 | -0.0177 | 1.05 | -0.0307 | 0.0258 | -0.0727 | 0.0744 |
| TCTCTCC | 0.0957 | -0.0776 | 0.00809 | 0.132 | -0.0444 | 1.13 | 0.0871 | -0.0166 | -0.0913 | -0.0654 |
| ACTCCCA | -0.245 | -0.178 | -0.319 | -1.21 | 0.0209 | -0.511 | -0.555 | -0.123 | -0.183 | -0.11 |
| CGGAAGC | 0.14 | 0.0452 | 0.296 | 0.399 | -0.00848 | -0.0851 | 0.0533 | 0.103 | 0.119 | 0.129 |
| GTGACCA | -0.0265 | 0.0644 | 0.341 | 1.06 | -0.196 | 1.7 | 0.0523 | 0.0143 | 0.083 | 0.153 |
| GTTCGTT | 0.0436 | -0.0589 | 0.231 | 0.688 | 0.015 | 1.44 | -0.0526 | -0.0755 | -0.0128 | 0.00565 |
| CGGTCTA | 0.0862 | 0.103 | 0.116 | 0.00873 | -0.102 | 0.65 | -0.0772 | -0.0872 | 0.112 | 0.119 |
| TCCTAGT | -1.56 | -0.085 | -0.0538 | -0.715 | -0.148 | -0.877 | -3.24 | -0.069 | -0.146 | -0.082 |
| GTCGGAG | -0.0856 | 0.0735 | 0.194 | 0.683 | -0.215 | 1.7 | 0.163 | -0.0697 | -0.0549 | -0.0768 |
| GGACGCA | 0.12 | 0.101 | 0.775 | 1.64 | 0.113 | 2.11 | 0.247 | 0.1 | 0.0761 | 0.151 |
| AAGTTCT | -2.08 | -2.75 | -0.609 | -3.03 | -1.71 | -0.133 | -4.49 | -0.106 | -0.148 | -0.094 |
| CAGACGG | 0.103 | 0.127 | 0.3 | 0.924 | 0.0711 | 1.44 | 0.179 | 0.0803 | -0.0607 | 0.0629 |
| AAACGCA | 0.0148 | 0.0548 | -0.208 | -1.1 | 0.0357 | -0.669 | 0.0632 | 0.0113 | -0.0291 | 0.00946 |
